In PubChem BioAssay AID1745853 (National Center for Advancing Translational Sciences (NCATS), 2022):
Some of the results follow. These are further read-outs of the screen, such as a control signal, another cell line or another target. No call is given for them.

Key:
Assay in all cases: Primary Screen for Target Class Profiling of Small Molecule Inhibitors of Methyltransferases
[1] = target: Glycine N-methyltransferase (Homo sapiens) (UniProt Q14749); details: purified enzyme, MTase-Glo SAH luminescence; measured here: GNMT inhibition; at 40 µM; stronger effect = lower value
Method in brief: (§1)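 Each enzyme was reacted with SAM and its substrate, with compounds tested once at 40 uM; SAH formed was read by MTase-Glo luminescence.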

[2] = target: Guanidinoacetate N-methyltransferase (Homo sapiens) (UniProt Q14353); details: purified enzyme, MTase-Glo SAH luminescence; measured here: GAMT inhibition; at 40 µM; stronger effect = lower value
Method in brief: as §1

[3] = target: Histamine N-methyltransferase (Homo sapiens) (UniProt P50135); details: purified enzyme, MTase-Glo SAH luminescence; measured here: HNMT inhibition; at 40 µM; stronger effect = lower value
Method in brief: as §1

[4] = target: Nicotinamide N-methyltransferase (Homo sapiens) (UniProt P40261); details: purified enzyme, MTase-Glo SAH luminescence; measured here: NNMT inhibition; at 40 µM; stronger effect = lower value
Method in brief: as §1

[5] = target: Phenylethanolamine N-methyltransferase (Homo sapiens) (UniProt P11086); details: purified enzyme, MTase-Glo SAH luminescence; measured here: PNMT inhibition; at 40 µM; stronger effect = lower value
Method in brief: as §1
% is set by controls: 0 for no effect and ±100 for the full control effect.

Structure (SMILES) | activity change, negative = inhibition [1] [%] | activity change, negative = inhibition [2] [%] | activity change, negative = inhibition [3] [%] | activity change, negative = inhibition [4] [%] | activity change, negative = inhibition [5] [%]
CC1(C(=O)NC2CCCC2)Cn2c(cc3sccc32)C(=O)N1C1CCCCCC1 (stereo not given) | 1.46 | 11.8 | 5.84 | 3.82 | -0.586
COc1ccc2c(c1)c(-n1cccc1)c1n2CC(C)(C(=O)NC2CCCCC2)N(Cc2ccc(Cl)cc2)C1=O (stereo not given) | -5.85 | 0 | 2.73 | -1.68 | -1.29
CC[C@H]1CN(C(=O)NC(C)C)CC[C@H]1CC(=O)N1CCC(C(=O)OC)CC1 | -3.81 | -4.17 | -2.13 | -5.08 | -2.48
CCC(C)NC(=O)c1ccc2c(=O)n(Cc3ccccc3)c3nn(CC(=O)NC(C)C)c(=O)n3c2c1 (stereo not given) | 3.36 | 0 | 3.17 | 1.43 | 2.51
Cn1c(=O)c2ccc(C(=O)NC3CCCC3)cc2n2c(=O)n(CC(=O)NC3CCCC3)nc12 | 3.93 | 0.981 | 0.664 | 3.37 | 4.32
CC(C)CCNC(=O)CCc1nnc2n(Cc3ccccc3Cl)c(=O)c3ccccc3n12 | -7.62 | 0.296 | -1.48 | -5.76 | -4.25
COc1cc2c(Oc3ccc(-c4cnc(Nc5ccc(F)cc5)n(C)c4=O)cc3F)ccnc2cc1OCCCN1CCOCC1 | 3.22 | 16.5 | 11.4 | -6.1 | 6.96
Cc1nc2ccccc2n1CCNC(=O)CC[C@H]1NC(=O)c2ccccc2NC1=O | -5.93 | -9.12 | -3.03 | -13.8 | 5.77
OC[C@H]1O[C@@H](OCCc2ccccc2)[C@H](O[C@@H]2OC[C@@H](O)[C@H](O)[C@H]2O)[C@@H](O)[C@@H]1O | -5.62 | 2.17 | 4.17 | -8.76 | 6.36
CC1(C(=O)NC2CCCCC2)Cn2c(nc3ccccc32)C(=O)N1Cc1cccc(Br)c1 (stereo not given) | 1.11 | 0.109 | -0.997 | -0.076 | -4.02
Cc1ccccc1N1C(=O)c2cc(C3CC3)nn2CC1(C)C(=O)NC1CCCCCC1 (stereo not given) | -1.26 | 0.28 | 3.39 | 4.2 | -1.77
CCOC(=O)COc1ccc2c(c1)C[C@@H](NC[C@H](O)c1cccc(Cl)c1)CC2 | 0.695 | 15.9 | 7.74 | -4.11 | -0.409
CCc1ccc(CNc2ncncc2-c2nc(-c3ccccc3)no2)cc1 | -1.55 | 2.48 | 0.784 | -3.71 | 11.1
CC(=O)Nc1cc(-c2cc(C(=O)NCc3cccnc3)c3c(c2)N(C)CCO3)ccn1 | -62.5 | -44.1 | -68.9 | -42.9 | -28.8
COc1ccc(Cn2c(=O)c3ccccc3n3c(-c4cccc(Cl)c4)nnc23)cc1 | 1.08 | 2.67 | 8.11 | 6.2 | 1.54
COc1ccc(NC(=O)c2nc3sccn3c2-c2ccncc2)cc1 | -6.74 | -0.25 | 1.58 | -2.42 | 8.54
CC(=O)Nc1c2n(c3ccc(F)cc13)CC(C)(C(=O)NC1CCCCC1)N(Cc1ccco1)C2=O (stereo not given) | -10.5 | -1.8 | 0.864 | -6.05 | -6.65
O=C(Nc1ccc(-n2nc(C(F)(F)F)cc2C(F)(F)F)cc1)c1ccncc1F | 6.42 | 17.1 | 11.2 | 2.39 | 8.93
COc1ccc(Cl)cc1Nc1ncncc1-c1nc(-c2ccccc2)no1 | -2.62 | 2.82 | -1.54 | -1.15 | -0.771
CC(CCC1(O)OC2CC3C4CC=C5C[C@@H](O[C@@H]6O[C@H](CO)[C@@H](O[C@@H]7O[C@@H](C)[C@H](O)[C@@H](O)[C@H]7O)[C@H](O)[C@H]6O[C@@H]6O[C@@H](C)[C@H](O)[C@@H](O)[C@H]6O)CC[C@]5(C)C4CC[C@]3(C)[C@@]2(O)[C@@H]1C)CO[C@@H]1O[C@H](CO)[C@@H](O)[C@H](O)[C@H]1O (stereo not given in full) | 5.87 | 5.64 | 15.3 | -8 | 9.04
Cc1cccc(N2CCN(S(=O)(=O)c3cc4[nH]c(=O)[nH]c4cc3Cl)CC2)c1C | -4.35 | 3.63 | -3.35 | -3.88 | -2.87
Cc1ccc(CN2CCC3(CC2)CN(c2ncccn2)CC3CO)cc1C (stereo not given) | -6.29 | -3.76 | -7.85 | -9.29 | -4.55
Cc1cnc(-c2cccnc2)n1C1CCN(S(=O)(=O)c2ccc3c(c2)OCCO3)CC1 | -6.41 | 0 | -1.76 | -11.9 | -3.4
COc1ccccc1CNC(=O)C1(C)Cn2cnc(C(=O)NCc3cccc(C)c3)c2C(=O)N1C1CC1 (stereo not given) | -11.7 | -3.09 | -11.7 | -11.6 | -11.1
CCCN1CCn2c3c(c4cc(OC)ccc42)CCN=C31 | 1.14 | 4.57 | -47.4 | 4.51 | -1.25
CN1CCN(C(=O)[C@@H]2CCC[C@@H](NCc3cnn(C)c3)CN(C)C(=O)C2)CC1 | -5.18 | -16.1 | -3.54 | -15.5 | -10.7
CN(C)Cc1nnc(C2CC(NC(=O)Cc3c[nH]c(=O)n(C)c3=O)C2)n1C (stereo not given) | -5.15 | -9.8 | -3.08 | -9.32 | 4.31
O=C(CCn1ccc2cc(S(=O)(=O)N3CCCC3)ccc21)NCCc1ccco1 | 2.33 | 3.3 | 5.13 | -0.332 | 2.3
